Experimental data as given in the antibiotic and cytotoxicity screens of Wong et al. (2023).
Some of the results follow.

test system: S. aureus RN4220; experiment: growth inhibition call (relative growth <= 0.2); conditions: 50 µM

SMILES	growth inhibition call
Cc1cc(C(=O)Nc2cccc3c2O[C@H](CN(C)C(=O)Nc2ccccc2)[C@H](C)CN([C@H](C)CO)C3=O)n(C)n1	inactive
Cc1noc(C)c1NC(=O)N(C)C[C@H]1OCCCC[C@@H](C)Oc2ccc(NC(=O)C3CCCCC3)cc2C(=O)N([C@H](C)CO)C[C@H]1C	inactive
C[C@@H]1CCCCO[C@H](CN(C)S(=O)(=O)c2cccs2)[C@H](C)CN([C@@H](C)CO)C(=O)c2cc(NC(=O)Nc3ccc4c(c3)OCO4)ccc2O1	inactive
O=C(C[C@@H]1CC[C@H]2[C@@H](COC[C@H](O)CN2S(=O)(=O)c2ccc(Cl)cc2)O1)N[C@H]1CCN(Cc2ccccc2)C1	inactive
CC(C)CC#Cc1ccc2c(c1)O[C@@H](CN(C)C(=O)c1cccnc1)[C@@H](C)CN([C@@H](C)CO)S2(=O)=O	inactive
COc1ccc(CSCCN)cc1Cl	inactive
COc1ccccc1CN1C(=O)c2ccccc2[C@@]2(Cc3ccccc3N(CC(F)(F)F)C2=O)[C@@H]1c1ccc(CO)cc1	inactive
Cc1noc(C)c1NC(=O)N(C)C[C@@H]1OCCCC[C@H](C)Oc2ccc(NC(=O)NC3CCCCC3)cc2C(=O)N([C@H](C)CO)C[C@@H]1C	inactive
C[C@H]1CN([C@@H](C)CO)C(=O)Cc2cc(NC(=O)Cn3cnnn3)ccc2O[C@@H]1CN(C)C(=O)Nc1ccc(C(F)(F)F)cc1	inactive
CCS(=O)(=O)N1C[C@]2(CCN(CC2)C(=O)Nc2c(noc2C)C)c2c(n(c3cc(ccc23)OC)C)[C@H]1CO	inactive
Cc1ccc(S(=O)(=O)Nc2ccc3c(c2)C(=O)N([C@@H](C)CO)C[C@H](C)[C@H](CN(C)Cc2ccc(C(F)(F)F)cc2)OCCCC[C@H](C)O3)cc1	inactive
C[C@H](CO)N1C[C@H](C)[C@H](CN(C)C(=O)Nc2ccc(C(F)(F)F)cc2)OCc2cn(nn2)CCCC1=O	inactive
C[C@@H]1CN([C@@H](C)CO)C(=O)c2cc(NC(=O)Nc3ccccc3)ccc2O[C@H]1CN(C)C(=O)Nc1cccc2ccccc12	inactive
COc1ccccc1CNC(=O)C[C@@H]1C[C@@H]2c3cc(NC(=O)Nc4ccc(C(F)(F)F)cc4)ccc3O[C@@H]2[C@H](CO)O1	inactive
OCCCn1cnnc1	inactive
C[C@@H]1CCCCO[C@H](CN(C)C(=O)C2CCCCC2)[C@H](C)CN([C@@H](C)CO)C(=O)c2cc(NC(=O)C3CCCCC3)ccc2O1	inactive
CC(C)(CO)C(O)C(=O)NCCC(=O)NCCSSCCNC(=O)CCNC(=O)C(O)C(C)(C)CO (centres undefined)	inactive
O=C(O)c1oc2ccccc2c1CSc1ccc(Cl)cc1	inactive
C[C@@H]1CN([C@H](C)CO)C(=O)c2cccc(NS(=O)(=O)c3cn(C)cn3)c2O[C@@H]1CN(C)Cc1ccc2c(c1)OCO2	inactive
CCS(=O)(=O)Nc1ccc2c(c1)C(=O)N(C)[C@H]1CC[C@H](CC(=O)N[C@H]3CCN(Cc4ccccc4)C3)O[C@@H]1CO2	inactive
C[C@H](CO)N1C[C@H](C)[C@@H](CN(C)S(=O)(=O)c2ccc(F)cc2)OCCCC[C@H](C)Oc2ccc(NC(=O)Nc3ccc4c(c3)OCO4)cc2C1=O	inactive
C[C@@H]1CN([C@@H](C)CO)C(=O)c2cc(NC(=O)c3ccncc3)ccc2O[C@@H](C)CCCCO[C@H]1CN(C)S(=O)(=O)c1cn(C)cn1	inactive
CCCNC(=O)[C@@]1(Sc2ccc(C)cc2)CC(=O)N(C2CCCCC2)[C@@H]1c1ccc(CO)cc1I	inactive
Cc1noc(C)c1NC(=O)N(C)C[C@H]1Oc2ccc(NC(=O)Nc3cccc4ccccc34)cc2CC(=O)N([C@@H](C)CO)C[C@@H]1C	inactive
C[C@H](CO)N1C[C@H](C)[C@@H](CN(C)Cc2ccc(Cl)c(Cl)c2)Oc2ccc(NC(=O)Nc3ccc(F)cc3)cc2C1=O	inactive
Nc1nc(C(=CCC(=O)O)C(=O)NC2C(=O)N3C(C(=O)O)=CCSC23)cs1 (centres undefined)	active
C[C@H]1COC(=O)[C@H](Cc2ccc(F)cc2)CC=CC[C@@H](CC(=O)N[C@@H](CO)Cc2ccccc2)C(=O)N1	inactive
Cc1ccc(S(=O)(=O)N(C)C[C@@H]2Oc3c(NS(C)(=O)=O)cccc3C(=O)N([C@@H](C)CO)C[C@@H]2C)cc1	inactive
Nc1ncnc2c1nc(Br)n2[C@@H]1O[C@@H]2COP(=O)(O)O[C@H]2[C@H]1O	inactive
